# The supplement of paper PMC4604168 (melanoma cell lines)
# The list shows a part of the results. Single values are uncertain, as repeats are few or missing.
# Experiments:
# Assay in all cases: cell count relative to DMSO control; melanoma cells; higher = more viable cells
# Conditions in all cases: library dose: low library concentration; 72 h
# MZ2-MEL = system: MZ2-MEL
# MeWo = system: MeWo
# RPMI7951 = system: RPMI7951
# RVH-421 = system: RVH-421
# SkMel28 = system: SkMel28
# SkMel2 = system: SkMel2
# SkMel30 = system: SkMel30
# UACC62 = system: UACC62
# WM115 = system: WM115
# WM1716 = system: WM1716
# WM1745 = system: WM1745
# WM3526 = system: WM3526
# WM3619 = system: WM3619
# WM451Lu = system: WM451Lu
# SkMel5 = system: SkMel5
# UACC257 = system: UACC257
# 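Note: cell number obtained by counting DAPI-stained nuclei in high-throughput microscope images with image analysis software, screen run in 1,536-well plates.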
Compound,cell count (MZ2-MEL) [%],cell count (MeWo) [%],cell count (RPMI7951) [%],cell count (RVH-421) [%],cell count (SkMel28) [%],cell count (SkMel2) [%],cell count (SkMel30) [%],cell count (UACC62) [%],cell count (WM115) [%],cell count (WM1716) [%],cell count (WM1745) [%],cell count (WM3526) [%],cell count (WM3619) [%],cell count (WM451Lu) [%],cell count (SkMel5) [%],cell count (UACC257) [%]
"Cn1cnc2c(F)c(Nc3ccc(Br)cc3Cl)c(C(=O)NOCCO)cc21 [selumetinib] + Nc1ncn([C@H]2C[C@H](O)[C@@H](CO)O2)c(=O)n1 [decitabine] (first compound 0.015 µM, partner dose 0.1 µM)",81.6,89.1,99.2,71.7,85.1,69.2,77.5,52.9,89.4,94.9,88.1,77.3,80.9,90.5,,
"CCN(CC)CCNC(=O)c1c(C)[nH]c(/C=C2\C(=O)Nc3ccc(F)cc32)c1C [sunitinib] + Nc1ncn([C@H]2C[C@H](O)[C@@H](CO)O2)c(=O)n1 [decitabine] (first compound 0.4 µM, partner dose 0.1 µM)",91.9,77.9,103,91.9,80.1,114,92.5,72.8,85.6,93.1,83.8,85.2,111,86.8,,
"CCN(CC)CCNC(=O)c1c(C)[nH]c(/C=C2\C(=O)Nc3ccc(F)cc32)c1C [sunitinib] + Cc1nc(Nc2ncc(C(=O)Nc3c(C)cccc3Cl)s2)cc(N2CCN(CCO)CC2)n1 [dasatanib] (first compound 0.4 µM, partner dose 0.004 µM)",103,65.9,86.6,84.8,81.5,110,61.7,73.7,88.2,126,77.3,77.2,109,86.2,,
"COc1cc([C@@H]2c3cc4c(cc3[C@@H](O[C@@H]3O[C@@H]5CO[C@@H](C)O[C@H]5[C@H](O)[C@H]3O)[C@H]3COC(=O)[C@H]23)OCO4)cc(OC)c1O [etoposide] + Cn1cncc1[C@@](N)(c1ccc(Cl)cc1)c1ccc2c(c1)c(-c1cccc(Cl)c1)cc(=O)n2C [tipifarnib] (first compound 0.02 µM, partner dose 0.01 µM)",88.3,92,104,52.3,91.4,80.7,85.7,78.8,90.5,78.9,94.1,76.5,94.3,79.5,96.8,71.3
"Cn1cnc2c(F)c(Nc3ccc(Br)cc3Cl)c(C(=O)NOCCO)cc21 [selumetinib] + COC(=O)c1sccc1S(=O)(=O)Nc1ccc(Nc2ccccc2)cc1OC [GSK0660] (first compound 0.015 µM, partner dose 1 µM)",86.3,102,122,81,87.7,73.7,45.4,61.4,90,128,103,68.7,56.9,93.5,111,82.3
"CCN(CC)CCNC(=O)c1c(C)[nH]c(/C=C2\C(=O)Nc3ccc(F)cc32)c1C [sunitinib] + C[C@@H]1CCN(C(=O)CC#N)C[C@@H]1N(C)c1ncnc2[nH]ccc12 [CP690550] (first compound 0.4 µM, partner dose 1 µM)",122,101,103,140,93.7,110,106,96.7,111,131,90.8,103,113,125,109,106
"C[C@]1(O)C[C@@H](c2nc(-c3ccc4ccc(-c5ccccc5)nc4c3)c3c(N)nccn32)C1 + O=S(=O)(c1ccccc1)N(CC(F)(F)F)c1ccc(C(O)(C(F)(F)F)C(F)(F)F)cc1 [T0901317] (first compound 0.4 µM, partner dose 1.4 µM)",111,111,88.9,107,71.3,86.3,81.3,89,106,92.8,72.1,76,103,83.8,86.9,92.8
"COc1cc([C@@H]2c3cc4c(cc3[C@@H](O[C@@H]3O[C@@H]5CO[C@@H](C)O[C@H]5[C@H](O)[C@H]3O)[C@H]3COC(=O)[C@H]23)OCO4)cc(OC)c1O [etoposide] + O=C(Nc1ccccc1)c1cc([N+](=O)[O-])ccc1Cl [GW9662] (first compound 0.02 µM, partner dose 2 µM)",90.1,85.8,84.1,96.6,97.8,84.5,107,68.8,83.9,78.7,81.6,78.9,87,106,100,86.1
"Cn1cnc2c(F)c(Nc3ccc(Br)cc3Cl)c(C(=O)NOCCO)cc21 [selumetinib] + CNC(=O)c1cc(Oc2ccc(NC(=O)Nc3ccc(Cl)c(C(F)(F)F)c3)cc2)ccn1 [sorafenib] (first compound 0.015 µM, partner dose 0.4 µM)",125,99.8,112,69.4,76,81.7,93.2,66.1,87.1,90.5,100,80.2,92.7,94.2,,
"COc1cc([C@@H]2c3cc4c(cc3[C@@H](O[C@@H]3O[C@@H]5CO[C@@H](C)O[C@H]5[C@H](O)[C@H]3O)[C@H]3COC(=O)[C@H]23)OCO4)cc(OC)c1O [etoposide] + NC(=O)c1ccc(N(C(N)=O)c2c(F)cccc2F)nc1-c1ccc(F)cc1F [VX702] (first compound 0.02 µM, partner dose 0.4 µM)",94.3,94.6,107,80.3,101,94.8,99.6,84,97.8,93.9,117,116,99.5,88.4,,
"CCN(CC)CCNC(=O)c1c(C)[nH]c(/C=C2\C(=O)Nc3ccc(F)cc32)c1C [sunitinib] + CCCCCCCCCCCC1=C(O)C(=O)C=C(O)C1=O [Embelin] (first compound 0.4 µM, partner dose 1.2 µM)",106,86.6,118,119,103,118,79,84.5,100,147,92.3,84.7,147,87.8,106,96.5
"Cn1cnc2c(F)c(Nc3ccc(Br)cc3Cl)c(C(=O)NOCCO)cc21 [selumetinib] + C#Cc1cccc(Nc2ncnc3cc(OCCOC)c(OCCOC)cc23)c1 [erlotinib] (first compound 0.015 µM, partner dose 0.8 µM)",97.3,86.3,97.8,93.4,65.3,76.5,55.2,73,82.5,116,82,54.4,67.1,124,,
"COc1cc([C@@H]2c3cc4c(cc3[C@@H](O[C@@H]3O[C@@H]5CO[C@@H](C)O[C@H]5[C@H](O)[C@H]3O)[C@H]3COC(=O)[C@H]23)OCO4)cc(OC)c1O [etoposide] + Oc1nc(-c2ccc(C(F)(F)F)cc2)nc2c1CSCC2 [XAV939] (first compound 0.02 µM, partner dose 2 µM)",94.1,93.4,91.3,91,90.8,89.6,99.5,80.2,,61.9,94.3,88.2,97.5,97.9,93.6,92.4
"C[C@]1(O)C[C@@H](c2nc(-c3ccc4ccc(-c5ccccc5)nc4c3)c3c(N)nccn32)C1 + O=c1cc(-c2cccc3c2Sc2ccccc2S3)oc(N2CCOCC2)c1 [KU55933] (first compound 0.4 µM, partner dose 1 µM)",95,94.1,87.5,106,82.8,99.5,105,106,103,119,91.7,85.8,94.8,129,88.3,73.6
"Cn1cnc2c(F)c(Nc3ccc(Br)cc3Cl)c(C(=O)NOCCO)cc21 [selumetinib] + CCc1ccc(CCOc2ccc(CC3SC(=O)NC3=O)cc2)nc1 [pioglitazone] (first compound 0.015 µM, partner dose 2 µM)",90.2,92.6,101,72.5,93.8,81.8,60,62.3,86.6,107,87.8,73.2,64.1,96.7,101,81.4
"CCN(CC)CCNC(=O)c1c(C)[nH]c(/C=C2\C(=O)Nc3ccc(F)cc32)c1C [sunitinib] + CC(C)CCN1c2nc(Nc3cc(F)c(O)c(F)c3)ncc2N(C)C(=O)C1C [BID1870] (first compound 0.4 µM, partner dose 0.2 µM)",106,77.2,94.7,105,91.3,96.3,67.7,85.8,108,134,93.6,70.5,107,115,102,73.1
"COc1cc([C@@H]2c3cc4c(cc3[C@@H](O[C@@H]3O[C@@H]5CO[C@@H](C)O[C@H]5[C@H](O)[C@H]3O)[C@H]3COC(=O)[C@H]23)OCO4)cc(OC)c1O [etoposide] + OCCn1cc(-c2cnc3nnn(Cc4ccc5ncccc5c4)c3n2)cn1 [PF04217903] (first compound 0.02 µM, partner dose 1 µM)",91.5,93.6,95.8,89.3,88.2,100,98.2,83.7,86.3,92.1,105,127,86.3,91.3,95.6,102
"CCN(CC)CCNC(=O)c1c(C)[nH]c(/C=C2\C(=O)Nc3ccc(F)cc32)c1C [sunitinib] + NC1(c2ccc(-c3nc4ccn5c(=O)[nH]nc5c4cc3-c3ccccc3)cc2)CCC1 [MK2206] (first compound 0.4 µM, partner dose 0.4 µM)",100,68.8,90.2,116,86.5,104,69.2,69.7,75,125,68.5,64.2,61.2,106,,
